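Results reflect a 48-hour exposure of cells in 96-well plates to compound at five concentrations. Here, GI50 denotes the concentration required for 50% inhibition of growth. At the TGI there is no net growth.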 Numbered stars: 1 amine (or outer) side, 2 acyl side, 3 side chain; on linkers, the order of the positions; unused ones are H or OH. Square brackets hold non-standard residues; d marks the D form. Peptide text beside a SMILES is read from it. * marks the point of attachment. X9 = C/C=C/CC(C)C(O)[C@H](N[*:1])C(=O)[*:2]; Decanoyl = CCCCCCCCCC(=O)*; Leu(ol) = CC(C)C[C@H](N)CO; Aib = CC(C)(N)C(=O)O

The test system of this experiment is NCI-H322M lung. Nature of the experiment: NCI anticancer screen, dose series, 48 h.
Turning to `CN1CCN(Cc2ccc(NC(=O)c3cncc(C#Cc4cnc5ccc(N6CCOCC6)nn45)c3)cc2C(F)(F)F)CC1`, the GI50 is 0.0865 µM and the TGI came out at 0.317 µM.

Take `CCN1C(=O)N(CC)C2SC(N/N=C/c3cccs3)=NC21` (configuration not stated): the GI50 was 0.944 µM and the TGI was above 100 µM.

Take `CN1CCN(Cc2ccc(NC(=O)c3cncc(C#Cc4cnc5ccc(N)nn45)c3)cc2C(F)(F)F)CC1`: the GI50 is 1.81 µM and the TGI turned out to be 8.86 µM.

`CN1CCN(Cc2ccc(NC(=O)c3cncc(C#Cc4cnc5ccc(OCCCS(C)(=O)=O)nn45)c3)cc2C(F)(F)F)CC1`: the GI50 is 0.722 µM and the TGI was 2.81 µM.

On to `CCc1ccc(SC2c3ccc(N(CC)CC)cc3Oc3nc(N)c(C#N)c(N)c32)cc1` (configuration not stated), for which the GI50 is 1.56 µM and the TGI is 2.91 µM.

For the compound `C/C=C/CC(C)C(O)[C@H](NC(=O)[C@@H]1CCCN1C(=O)C(C)(C)NC(=O)CCCCCCCCC)C(=O)NC(C)(C)C(=O)N[C@@H](CCC(N)=O)C(=O)N[C@H](CCC(N)=O)C(=O)NC(C)(C)C(=O)NC(C)(C)C(=O)N[C@@H](CCC(N)=O)C(=O)N[C@H](CC(C)C)C(=O)N[C@H](CO)CC(C)C` (stereo partly drawn) (Decanoyl-[Aib]P[X9][Aib]Q[dQ][Aib][Aib]Q[dL][Leu(ol)]), the GI50 was 2.05 µM and the TGI stood at 5.51 µM.

For the origin of these results see PubChem BioAssay (NCI).
